# The whole screen tested about 420,000 compounds, of which about 50,000 (12%) were called active. This list was built around the results that the source calls inconclusive (neither active nor inactive); the mix of calls is not that of the screen. Calls come from the whole dose curve; as a rule, active = well fitted inhibition curve with a large enough effect; inconclusive = small, poorly fitted or top-dose-only effect; inactive = flat fitted curve, though single readings scatter. Potencies of inconclusive entries are left out as doubtful fits.
# Assay: qHTS for Inhibitors of human tyrosyl-DNA phosphodiesterase 1 (TDP1): qHTS in cells in presence of CPT; note: nearly all actives have a fitted effect of over 55% in size
# Conditions: chicken DT40 Tdp1-/-;hTDP1 cells + 20 nM CPT, ATP luminescence, 48 h; activity change, negative = growth inhibition: at 46.2 µM (top of the series) unless noted
# Method in brief: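 Cell growth measured by CellTiter-Glo luminescence after a minimum 48 h, 37 C compound exposure with 20 nM CPT in Tdp1-knockout DT40 cells stably expressing hTDP1, seeded 400/well; qHTS titration format.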
# % is set by controls: 0 for no effect and ±100 for the full control effect; potency is the fitted concentration of half-maximal effect; tags give direction and shape of the fitted curve.
SMILES,"activity change, negative = growth inhibition",Potency
O=C(c1ccccc1Cc1ccccc1)N1CCN(S(=O)(=O)c2ccccc2)CC1,inactive: -28%,–
COCCn1c(SCC(=O)Nc2cc(C)on2)nc2c(c1=O)SC(C)C2 (centres undefined),inactive: -28.7%,–
CCS(=O)(=O)c1ncc(Cl)c(C(=O)Nc2ccccc2OC)n1,–,active: 1.03 µM
O=C(NCCc1ccccc1)c1ccc2nc(N3CCOCC3)sc2c1,inactive: -7.05%,–
NC(=O)c1ccc2c(=O)n3c(-c4cccs4)csc3nc2c1,inactive: -22.8%,–
COc1ccc(C(CNC(=O)COc2cc(C)ccc2Cl)N2CCCCC2)cc1 (centres undefined),–,"inconclusive [inhibitor, partial curve, poor fit]"
CC(=O)Nc1cccc(/C(C)=N/NC(=O)c2ccc(CN3CCOCC3)cc2)c1,inactive: -3.92%,–
Cc1nc2ccc(NC(=O)C3=NN(C)C(=O)CC3)cc2s1,inactive: -3.03%,–
COc1cc2c(cc1OC)C(C)N(CC(=O)Nc1ccc(C)c(S(=O)(=O)N3CCOCC3)c1)CC2 (centres undefined),–,"inconclusive [inhibitor, single point]"
Cc1ccc(S(=O)(=O)c2c(C)nn(C(C)(C)C)c2OC(=O)C2CCCC2)cc1,–,"inconclusive [inhibitor, single point]"
CCCCC1CC(/C(C)=N/NC(N)=O)OC1=O (centres undefined),inactive: -5.9%,–
COc1cc(CNC(=O)C2CC2)ccc1OCc1ccccc1,–,"inconclusive [inhibitor, single point]"
Cc1ccc(C(=O)Cn2c(C(=O)/C=C/c3ccccc3)nc3ccccc32)cc1,–,active: 16.4 µM
c1coc(CNc2ncnc3nc[nH]c23)c1,–,inactive
COc1ccc(CN(C(C)=O)c2cccc(C)c2C)cc1,–,"inconclusive [inhibitor, single point]"
CC[C@]1(C(=O)OC)[C@H]2C(=O)N(Cc3ccccc3)C(=O)[C@H]2[C@H]2CN=C(SCc3ccc(Cl)cc3)N21,–,"inconclusive [inhibitor, single point]"
Cc1nc(C)c(C(=O)Nc2ncc([N+](=O)[O-])s2)o1,–,"inconclusive [inhibitor, single point]"
COc1ccc(-c2noc(CCC(=O)NCCc3cccc(C)c3)n2)cc1,–,"inconclusive [inhibitor, single point]"
Cc1ccc(-n2nc(C)c3c2OC(N)=C(C#N)C3c2ccccc2F)cc1 (centres undefined),–,"inconclusive [inhibitor, full curve]"
COC(=O)c1ccccc1NC(=O)/C=C/c1cc(OC)c(OC)c(OC)c1,–,active: 20.6 µM
Cc1cccc(OCC(=O)NC(C)C(=O)N/N=C/c2c(OCc3ccccc3)ccc3ccccc23)c1 (centres undefined),–,"inconclusive [inhibitor, single point]"
Cc1ccc(-n2c(-c3cccc(C)c3)nc3c(cnn3-c3ccccc3)c2=O)cc1,–,"inconclusive [inhibitor, single point]"

SMILES,"activity change, negative = growth inhibition",Potency
C[C@H]1C=C(C(=O)NCc2nc3ccccc3[nH]2)O[C@@H](OCc2ccc(CO)cc2)C1,inactive: -20.6%,–
Cc1nc(N2CCN(S(=O)(=O)c3ccccc3C#N)CC2)c2c(-c3ccccc3)csc2n1,–,"inconclusive [inhibitor, single point]"
O=C(O)CCNS(=O)(=O)c1ccc(Oc2ccccc2)cc1,inactive: -10.1%,–
O=C(c1cc(-c2cccnc2)nc2ccccc12)N1CCCc2ccccc21,–,"inconclusive [inhibitor, single point]"
Cc1ccc(C(=O)OCC(=O)NC2CCCC(C)C2C)cc1S(=O)(=O)N1CCCCC1 (centres undefined),–,active: 20.6 µM
Cc1c(F)cccc1NS(=O)(=O)c1ccc2c(c1)c(=O)n(C)c(=O)n2C,–,"inconclusive [inhibitor, partial curve, poor fit]"
Cc1ccc2cc3cc(C(=O)NCCCN4CCc5ccccc5C4)oc3nc2c1,–,"inconclusive [inhibitor, single point]"
COc1ccc(S(=O)(=O)N2CCOCC2)cc1NC(=O)c1ccc(OCC(C)C)c(OC)c1,–,"inconclusive [inhibitor, single point]"
Cc1ccccc1Nc1ccc(S(=O)(=O)N2CCOCC2)cc1[N+](=O)[O-],–,"inconclusive [inhibitor, partial curve]"
Cc1cc(C)nc(SCC(=O)N/N=C/C=C/c2ccccc2)n1,–,"inconclusive [inhibitor, partial curve]"
O=C(CSc1ncnc2c1nnn2-c1ccc(F)cc1)NCc1ccco1,–,"inconclusive [inhibitor, single point]"
O=C(O)CCN1C(=O)/C(=C/c2cn(-c3ccccc3)nc2-c2cccs2)SC1=S,–,active: 4.61 µM
COc1ccc(N2CCN(C(=O)c3ccc(N4C(=O)NC5CC4(C)Oc4ccccc45)cc3)CC2)cc1 (centres undefined),–,active: 29.1 µM
CCN(Cc1ccccc1)C(=O)CCS(=O)(=O)c1ccc2c(c1)NC(=O)CO2,–,"inconclusive [inhibitor, single point]"
COc1cc(OC)c2c(-c3cccc(-c4ccc(NC(C)=O)cc4)c3)cc(=O)oc2c1,–,active: 4.11 µM
O=c1oc2ccccc2c(NC2CCCCC2)c1NS(=O)(=O)c1ccc(F)cc1,–,"inconclusive [inhibitor, single point]"
CCc1ccc(NC(=O)CSc2ccc(-c3sc(C)nc3C)nn2)cc1,–,"inconclusive [inhibitor, single point]"
CCC(C)NC(=O)c1ccc(N2CC3CC(C2)c2cccc(=O)n2C3)c(NC(=O)c2c(F)cccc2F)c1 (centres undefined),–,"inconclusive [inhibitor, partial curve]"
Cc1c(N=C2N=C(NC(=O)c3cccs3)c3ccccc32)c(=O)n(-c2ccccc2)n1C,–,"inconclusive [inhibitor, single point]"
CC(OC(=O)c1ccc(S(=O)(=O)NCc2ccco2)cc1)C(=O)Nc1ccccc1 (centres undefined),–,"inconclusive [inhibitor, single point]"
O=C(C1=C[C@H](c2ccc(C(F)(F)F)cc2)C[C@H](OCCCCO)O1)N1CCOCC1,inactive: -43%,–
N=c1sccn1CC(=O)Nc1ccc(S(N)(=O)=O)cc1,–,"inconclusive [inhibitor, partial curve]"
